In PubChem BioAssay AID445 (National Center for Advancing Translational Sciences (NCATS), 2006):
In all, about 110,000 compounds went through this assay and about 40 (0.04%) were called active. The inconclusive results got no clear call from the source; some entries with a clear call stand among them for comparison. Calls follow the shape of the dose curve; as a rule, active = well fitted curve in the direction sought with a large enough effect in the signal ratio (not every such curve was filed as active); inconclusive = small, poorly fitted or top-dose-only effect, or a change in a side signal; inactive = flat fitted curve, though single readings scatter; the % refers to the signal ratio. Where the call is inconclusive, the potency comes from a doubtful curve fit.

experiment: IkB Signaling; conditions: ABC-DLBCL IkBa-CBG/CBR dual luciferase ratio (green luciferase fused to IkBa over red control in OCI-Ly3 lymphoma cells), 4 h; IkBa stabilization activation: at 57.1 µM (top of the series), scaled: untreated 0%, proteasome inhibitor 100% unless noted;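 as to IkBa stabilization activation: 0% = basal untreated cells and 100% = reference inhibitor full response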
Summary of the method: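 Curves were fitted separately to fusion (green), unfused (red) and ratio luminescence, then classed by r2, magnitude and activity. Cells: OCI-Ly3, 4 h compound plus doxycycline at 37C; 10 uM MG-132 defined full response.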
Potency is read from the fitted curve at half-maximal effect.

Compound | IkBa stabilization activation | Potency
COc1cc(Nc2nc3c(S(=O)(=O)c4ccc(C)c(C)c4)nnn3c3ccsc23)cc(OC)c1 | inactive | 
COc1ccc2nc(SCc3nc(N)nc(Nc4ccccc4)n3)[nH]c2c1 | inconclusive: -4.95% [signal inhibitor] | 
Oc1ccc(NCc2ccccc2OCc2ccc(Cl)cc2)cc1 |  | inconclusive: 39.8 µM [signal inhibitor, single point]
Cc1ccc(NC(=O)/C=C\C(=O)N(c2ccc(C(C)C)cc2)C(C(=O)NCc2ccco2)c2ccc(F)cc2)cc1 (stereo not given) | inconclusive: 0.918% [signal inhibitor] | 
COc1ccc2c(Sc3ccc(C)cc3)c(C(=O)NC(C)C)[nH]c2c1 | inconclusive: -1.58% [signal inhibitor] | 
O=c1oc2ccccc2c(N2CCN(c3ccccc3F)CC2)c1CN1CCCC1 | inconclusive: 12.1% [signal inhibitor] | 
Cc1cccc(CNC(=O)Cn2ccc3cc(S(=O)(=O)N4CCCCCC4)ccc32)c1 | inconclusive: 0.71% [signal inhibitor] | 
CCCCSc1nnc(-c2cc(Br)ccc2N)c(=O)[nH]1 | inconclusive: 6.63% [signal inhibitor] | 
CCCc1cc(=O)n2[nH]c(CCc3ccccc3)nc2n1 | inconclusive: 11.6% [signal inhibitor] | 
CN1CCCN(C(=O)Cc2c(Cl)cccc2Cl)c2nc3ccccc3nc21 | inactive | 
CCCNC(=O)CN1C(=O)CSc2ccc(S(=O)(=O)N3CCC(C)CC3)cc21 | inconclusive: 1.57% [signal inhibitor] | 
CCn1c(COc2ccc(C)cc2)nnc1SCC(=O)Nc1ccc2c(c1)OCCO2 | inactive | 
CCOc1ccc(NC(=O)c2cc(S(=O)(=O)NC3CCCCCC3)ccc2F)cc1 | inconclusive: 3.92% [signal inhibitor] | 
COC(=O)c1cc(OC)c(OC)cc1NC(=O)c1ccccc1 | inactive | 
Cc1ccccc1-c1noc(-c2ccc(NCc3ccco3)c([N+](=O)[O-])c2)n1 | inconclusive: 0.965% [signal inhibitor] | 
COc1ccc2c(c1)CCc1c(C(=O)Nc3c(C)nn(Cc4ccccc4)c3C)noc1-2 |  | inconclusive: 31.6 µM [signal inhibitor, partial curve]
CC(C)(C)NC(=O)c1oc2ccccc2c1NC(=O)c1ccccc1F | inconclusive: 0.822% [signal inhibitor] | 
Cc1ccc(S(=O)(=O)Nc2ccc3nc(-c4ccc(F)cc4)oc3c2)cc1 | inconclusive: 0.088% [signal inhibitor] | 
COc1cc(NC(=O)Cn2c(=O)ccc3cc(S(=O)(=O)N4CCCC4)ccc32)cc(OC)c1 | inconclusive: -0.513% [signal inhibitor] | 
Cc1ccc(CNC(=O)c2c(C)oc3ncnc(N4CCOCC4)c23)cc1 | inconclusive: -0.664% [signal inhibitor] | 
CCCCCCNc1c(C(=O)OCC)c(=O)[nH]c2ccccc12 | inactive | 
COc1ccc(/C=C\c2onc(C)c2S(=O)(=O)N2CCC(C(=O)Nc3cccc(OC)c3)CC2)cc1 | inconclusive: 1.21% [signal inhibitor] | 
c1ccc(-c2nc(-c3ccncc3)no2)cc1 | inactive | 
O=C(CSc1ncnc2c1oc1ccccc12)N1CCCc2ccccc21 | inconclusive: -6.58% [signal inhibitor] | 

Compound | IkBa stabilization activation | Potency
CC(C)Cc1cc(C(=O)Nc2ccc3c(c2)OCO3)no1 | inactive | 
O=C(Nc1ccccc1)c1nc[nH]c1C(=O)O | inactive | 
Cc1cc(C)c2c(CC(=O)N(Cc3ccc(Cl)cc3)Cc3ccco3)coc2c1 | inconclusive: -0.466% [signal inhibitor] | 
Cc1nc(CSc2nnc(C)s2)cs1 | inactive | 
Cc1c(-c2ccccc2)nc2c(Cl)cccc2c1C(=O)OCC(=O)c1ccc(F)cc1 | inconclusive: 2.6% [signal inhibitor] | 
CCOc1ccccc1C(=O)N(Cc1sccc1C)C1CCS(=O)(=O)C1 (stereo not given) | inconclusive: -1.27% [signal inhibitor] | 
N#Cc1c(-n2ncnc2-c2ccc(F)cc2)sc2c1CCCCC2 |  | inconclusive: 0.158 µM [signal inhibitor]
COc1ccc(CC(=O)N2CC3(C)CC2CC(C)(C)C3)cc1OC (stereo not given) | inconclusive: -5.23% [signal inhibitor] | 
CSc1ccc(CCNC(=O)c2ccc3c(Cl)c4c(nc3c2)CCCC4)cc1 | inconclusive: -0.123% [signal inhibitor] | 
CCCSc1ncc(Cl)c(C(=O)Nc2nc3ccc(C)cc3s2)n1 | inconclusive: 1.13% [signal inhibitor] | 
Cc1ccc(C)c(N2CCN(C(=O)C3CCN(S(=O)(=O)c4c(C)noc4C)CC3)CC2)c1 | inconclusive: 4.82% [signal inhibitor] | 
O=C(Cn1cnnn1)OCC(=O)c1ccc(Cl)s1 | inconclusive: 14.8% [signal inhibitor] | 
O=C(Nc1cccnc1)c1ccc(Cl)c(S(=O)(=O)N2CCCCCC2)c1 | inconclusive: -0.526% [signal inhibitor] | 
CC1CCCC(C)N1C(=O)CN1CCN(c2nc(-c3ccc(F)cc3)cs2)CC1 (stereo not given) | inconclusive: 0.977% [signal inhibitor] | 
COc1ccc(S(=O)(=O)c2c(O)c3ccc(C(=O)Nc4ccccc4)cc3[nH]c2=O)cc1 | inconclusive: 7.75% [signal inhibitor] | 
Cc1nn(C)cc1CN(C)C(=O)c1sc2cccc(Cl)c2c1Cl | inconclusive: 1.12% [signal inhibitor] | 
Cc1ccc(Cl)cc1NC(=O)C1CCCN(c2cnccn2)C1 (stereo not given) | inconclusive: 0.238% [signal inhibitor] | 
CCCc1nnc2n1N=C(c1ccc(OC)c(OC)c1)CS2 | inactive | 
CCS(=O)(=O)c1ncc(Cl)c(C(=O)NCc2ccc(OC)cc2)n1 |  | inconclusive: 3.98 µM [signal inhibitor, single point]
Cc1cccc(-c2noc(CN(C(=O)c3ccc(Br)o3)C(C)C)n2)c1 | inconclusive: 4.58% [signal inhibitor] | 
CC(C)CCn1c(Sc2nc3ccccc3s2)nc2c1c(=O)[nH]c(=O)n2C | inactive | 
CCOC(=O)c1ccccc1NC(=O)Cn1c(=O)n(Cc2nc(C)no2)c(=O)c2ccccc21 | inconclusive: 0.439% [signal inhibitor] | 
O=C(CCn1c(=O)c2ccccc2n(Cc2cccc(Cl)c2)c1=O)NCCc1ccccc1 | inconclusive: 3.3% [signal inhibitor] | 
COc1ccc(C(=O)Nc2ccc3c(c2)nc2n3CCSC2)cc1 | inactive | 

Compound | IkBa stabilization activation | Potency
NC(N)=NCCSSCCN=C(N)N | inactive | 
CC(=O)Nc1cccc(Oc2ccc(-c3noc(C)n3)cc2)c1 | inactive | 
O=C1CCCC2=C1C(c1cccs1)n1nc(SCc3ccccc3F)nc1N2 (stereo not given) | inconclusive: 0.948% [signal inhibitor] | 
COc1cc(Nc2ncc3c(n2)CCN(Cc2cccc(C)c2)C3)cc(OC)c1 | inconclusive: -2.78% [signal inhibitor] | 
Cc1oc2c(C)c3oc(=O)c(CC(=O)N4CCCCC4)c(C)c3cc2c1C | inconclusive: 1.03% [signal inhibitor] | 
COc1ncc2nc(-c3ccc(F)cc3)c(=O)n(C[C@H]3CCCO3)c2n1 | inactive: -0.31% [at 11.4 µM, scaled: untreated 0%, proteasome inhibitor 100%] | 
CCCN(CCC)C(=O)C(Cc1ccccc1)NS(=O)(=O)c1ccc2c(c1)c(=O)n(C)c(=O)n2C (stereo not given) | inactive | 
O=C(c1ccc(Cl)s1)N1CCN(c2ccccc2)CC1 | inactive | 
COc1ccc(CCNc2oc(COc3ccccc3F)nc2C#N)cc1 | inconclusive: 0.0468% [signal inhibitor] | 
Cn1nnc(-c2ccc(OCc3ccccc3F)cc2)n1 | inactive | 
CCc1ccc(C2CC(=O)N3CN(c4ccccc4)CSC3=C2C#N)cc1 (stereo not given) |  | inconclusive: 25.1 µM [signal inhibitor, partial curve]
Cc1cc(C(=O)Nc2sc3c(c2C#N)CCC(C)C3)no1 (stereo not given) | inactive | 
COc1cccc(C(=O)Nc2nc(-c3ccc(Br)cc3)ns2)c1 | inconclusive: 2.5% [signal inhibitor] | 
Cc1ccc(S(=O)(=O)N2CCN(Cc3nc4ccc(C)cc4o3)CC2)c(C)c1 | inactive | 
Cc1ccccc1OCCn1c(CCNC(=O)C2CCCCC2)nc2ccccc21 | inconclusive: 1.46% [signal inhibitor] | 
CC(C)(C)C(=O)Nc1ccccc1C(=O)OCc1cc(=O)n2ccsc2n1 | inconclusive: 0.803% [signal inhibitor] | 
COCc1nnc(NC(=O)c2sc3ccccc3c2Cl)s1 |  | inconclusive: 25.1 µM [signal inhibitor, partial curve]
CCc1ccc(C2=CC(c3c(F)cccc3Cl)n3c(nc4ccccc43)N2)cc1 (stereo not given) | inactive | 
CCc1ccccc1-n1nnc(-c2nsc(NC(=O)c3ccc(C)c(C)c3)n2)c1C | inconclusive: 9.74% [signal inhibitor] | 
Cc1oc(-c2ccc(Cl)cc2)nc1CN1CCCC(C(=O)NCc2ccccc2)C1 (stereo not given) | inconclusive: -0.276% [signal inhibitor] | 
COc1cccc(Cn2c(=O)c(-c3ccc(F)c(F)c3)nc3cncnc32)c1 | inactive: 2.04% [at 11.4 µM, scaled: untreated 0%, proteasome inhibitor 100%] | 
C=Cc1c(C)c2cc3nc(cc4[nH]c(cc5nc(cc1[nH]2)C(C)=C5CCC(=O)O)c(CCC(=O)OC)c4C)[C@@]1(C)C3=CC=C(C(=O)OC)[C@H]1C(=O)OC (tested in a mixture with another compound) |  | inconclusive: 7.94 µM [signal inhibitor, partial curve]
